Experimental data as given in the antibiotic and cytotoxicity screens of Wong et al. (2023).
The list shows a part of the results.

tested on: HSkMC (human skeletal muscle cells); test: cytotoxicity call (relative viability < 0.9); settings: 10 µM

| SMILES | cytotoxicity call |
| --- | --- |
| C[C@H](CO)N1C[C@H](C)[C@@H](CN(C)Cc2ccc(Cl)c(Cl)c2)OCCCC[C@H](C)Oc2ccc(NS(C)(=O)=O)cc2C1=O | inactive |
| C[C@@H]1CN([C@@H](C)CO)C(=O)c2cc(NC(=O)Nc3ccc4c(c3)OCO4)ccc2O[C@@H](C)CCCCO[C@@H]1CN(C)C(=O)c1ccccc1 | inactive |
| C[C@H]1C[C@@H]2[C@@H](C[C@@H]1C)N[C@@H]1C(=O)NC(=O)N[C@H]1N2C[C@H](O)[C@H](O)[C@H](O)CO | inactive |
| C[C@H](CO)N1C[C@H](C)[C@@H](CN(C)C(=O)Nc2ccccc2)OCc2ccccc2-c2c(n(C)c3ccccc23)C1=O | inactive |
| C[C@H](CO)N1C[C@H](C)[C@H](CN(C)S(C)(=O)=O)Oc2ccc(NC(=O)Cn3cnnn3)cc2C1=O | inactive |
| COc1ccc(S(=O)(=O)N(C)C[C@H]2Oc3ccc(NC(=O)NC(C)C)cc3CC(=O)N([C@H](C)CO)C[C@H]2C)cc1 | inactive |
| C[C@@H]1CN([C@H](C)CO)C(=O)c2cc(C#CC3CCCCC3)cnc2O[C@@H]1CN(C)C(=O)Cc1ccccn1 | inactive |
| C[C@@H]1CN([C@H](C)CO)C(=O)c2cccc(NC(=O)NC3CCCCC3)c2O[C@H]1CN(C)Cc1ccc(Oc2ccccc2)cc1 | inactive |
| COc1ccc(NC(=O)Nc2ccc3c(c2)C(=O)N([C@H](C)CO)C[C@@H](C)[C@@H](CN(C)C(=O)Cc2ccccc2)OCCCC[C@H](C)O3)cc1 | inactive |
| C[C@@H]1CN([C@@H](C)CO)C(=O)c2cccc(NC(=O)Nc3ccc(C(F)(F)F)cc3)c2O[C@@H]1CN(C)Cc1ccc2c(c1)OCO2 | inactive |
| Cc1noc(C)c1S(=O)(=O)Nc1ccc2c(c1)CC(=O)N([C@@H](C)CO)C[C@@H](C)[C@@H](CN(C)S(C)(=O)=O)O2 | inactive |
| CC[C@@H](CN)Cc1ccccc1 | inactive |
| O=C(C[C@H]1CC[C@@H]2[C@H](COC[C@@H](O)CN2S(=O)(=O)c2ccccc2)O1)NCc1ccc2c(c1)OCO2 | inactive |
| Cc1noc(C)c1NC(=O)Nc1ccc2c(c1)C(=O)N([C@@H](C)CO)C[C@@H](C)[C@H](CN(C)C(=O)Nc1cccc3ccccc13)O2 | inactive |
| C[C@H]1CN([C@@H](C)CO)C(=O)c2cccc(NC(=O)CCCCCC(=O)Nc3ccccc3N)c2O[C@H]1CN(C)S(C)(=O)=O | inactive |
| C[C@@H]1CN([C@H](C)CO)S(=O)(=O)c2ccc(-c3ccc(C(=O)N(C)C)cc3)cc2O[C@H]1CN(C)C(=O)C1CCC1 | inactive |
| Cc1ccc(S(=O)(=O)Nc2cccc3c2O[C@@H](CN(C)CC2CC2)[C@H](C)CN([C@@H](C)CO)C3=O)cc1 | inactive |
| CN(C)CCCNC(=O)C[C@@H]1CC[C@@H]2[C@@H](COc3ccc(NS(C)(=O)=O)cc3C(=O)N2C)O1 | inactive |
| C[C@@H]1CN([C@H](C)CO)C(=O)c2cc(NS(C)(=O)=O)ccc2O[C@@H](C)CCCCO[C@@H]1CN(C)S(=O)(=O)c1ccc(F)cc1 | inactive |
| O=C(O)c1cc(O)c2c(c1)C(C1c3cc(C(=O)O)cc(O)c3C(=O)c3c(OC4OC(CO)C(O)C(O)C4O)cccc31)c1cccc(OC3OC(CO)C(O)C(O)C3O)c1C2=O (stereo not given) | inactive |

| SMILES | cytotoxicity call |
| --- | --- |
| [Cl][Ca][Cl] | inactive |
| COc1ccc(S(=O)(=O)Nc2ccc3c(c2)C(=O)N([C@@H](C)CO)C[C@@H](C)[C@H](CN(C)Cc2ccc(C(F)(F)F)cc2)OCCCC[C@@H](C)O3)cc1 | active |
| C[C@@H]1CCCCO[C@H](CN(C)Cc2ccncc2)[C@@H](C)CN([C@H](C)CO)C(=O)c2cc(NC(=O)Nc3ccc(F)cc3)ccc2O1 | inactive |
| COCC(=O)N1C[C@@H](C(=O)N2CCCO2)C[C@@H]2OCC[C@@H]21 | inactive |
| C[C@H](CO)N1C[C@H](C)[C@H](CN(C)S(=O)(=O)c2ccc(F)cc2)OCCCC[C@H](C)Oc2ccc(NC(=O)Nc3cccc4ccccc34)cc2C1=O | inactive |
| C[C@H]1CN([C@@H](C)CO)C(=O)CCCn2cc(nn2)CO[C@H]1CN(C)C(=O)Nc1ccc2c(c1)OCO2 | inactive |
| O=C(O)[C@@H]1C[C@@H](O)CN1 | inactive |
| N[C@@H](CO)c1cccc(Br)c1 | inactive |
| C[C@@H]1CCCCO[C@@H](CN(C)C(=O)Nc2ccc3c(c2)OCO3)[C@@H](C)CN([C@@H](C)CO)C(=O)c2cc(NC(=O)C3CCCCC3)ccc2O1 | inactive |
| Cc1noc(C)c1NC(=O)Nc1ccc2c(c1)C(=O)N([C@H](C)CO)C[C@H](C)[C@@H](CN(C)S(=O)(=O)c1cccs1)OCCCC[C@@H](C)O2 | inactive |
| COc1ccc(S(=O)(=O)N2C[C@@H](O)COC[C@@H]3O[C@@H](CC(=O)NCc4ccc(Cl)c(Cl)c4)CC[C@H]32)cc1 | inactive |
| Cc1noc(C)c1NC(=O)Nc1cccc2c1O[C@H](CN(C)Cc1ccc(C(F)(F)F)cc1)[C@@H](C)CN([C@@H](C)CO)C2=O | inactive |
| C[C@H]1CCCCO[C@H](CN(C)C(=O)Nc2ccc(F)cc2)[C@@H](C)CN([C@@H](C)CO)C(=O)c2cc(NC(=O)Nc3ccc(C(F)(F)F)cc3)ccc2O1 | inactive |
| CC(C)(C)S(=O)N1Cc2cc(C(=O)N3CCN(Cc4ccccc4)CC3)nc(-c3cccc(C#CCC4CCCC4)c3)c2[C@H]1CCO (stereo not given in full) | inactive |
| C[C@@H]1CN([C@@H](C)CO)C(=O)Cc2cc(NC(=O)Nc3cccc4ccccc34)ccc2O[C@@H]1CN(C)Cc1ccc(C(F)(F)F)cc1 | inactive |
| COc1ccc([C@@H]([C@H](Cc2ccccc2)OC(C)=O)N2C[C@@H](CC(=O)N(C)C)[C@@H]3[C@H]([C@@H]2Cc2ccccc2)N(C)O[C@H]3c2ccccc2)cc1 | inactive |
| C=CC(=O)N[C@@H]1c2ccccc2C[C@@H]1O | inactive |
| COc1ccccc1S(=O)(=O)N[C@@H]1C=C[C@@H](CC(=O)N2CCN(C)CC2)O[C@@H]1CO | inactive |
| C[C@H]1CCCCO[C@@H](CN(C)C(=O)c2ccccc2)[C@@H](C)CN([C@@H](C)CO)C(=O)c2cc(NC(=O)NC3CCCCC3)ccc2O1 | inactive |
| COc1ccc(NC(=O)Nc2ccc3c(c2)C(=O)N([C@H](C)CO)C[C@H](C)[C@H](CN(C)Cc2ccc(C(F)(F)F)cc2)O3)cc1 | inactive |
